Assay results reported in PubChem BioAssay (NCI).
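96-well plates; 48 h exposure; 5 concentrations. Endpoints by linear interpolation between flanking doses. Not reached: highest tested concentration assigned. TGI: total growth inhibition.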 The source holds more than one record for some entries. They are shown here; other results are not. There may be further records. For part of these data: The tests behind the records often covered other concentration ranges, which the source does not state; a value can be the end of its range. For part of these data: The values listed for one entry are repeats in other runs, samples, wells, individuals or studies. A tag in brackets gives the origin of a value. Letters hold for one entry only.

What was measured:
Assay in all cases: inhibition of tumour cell growth, NCI panel, 48 h
[1] = system: A549 NSCLC
[2] = system: BT-549 breast
[3] = system: CAKI-1 renal
[4] = system: COLO 205 colon
[5] = system: DU-145 prostate
[6] = system: HOP-92 NSCLC
[7] = system: MDA-MB-231 breast
[8] = system: MDA-MB-435
[9] = system: NCI/ADR-RES ovarian
[10] = system: OVCAR-8 ovarian
[11] = system: SF-268 CNS
[12] = system: SK-MEL-28 melanoma
[13] = system: TK-10 renal
[14] = system: UACC-257 melanoma
[15] = system: CCRF-CEM leukemia
[16] = system: HT29 colon
[17] = system: RPMI-8226 leukemia
[18] = system: SR leukemia

## COc1cccc(/C=C/C(=O)N2CC(CCl)c3c2cc(N)c2ccccc32)c1 (stereo not drawn)
[1]
  TGI: 248 nM and > 100 µM
[2]
  TGI: 110 nM and > 100 µM
[3]
  TGI: 4.02 nM and 271 nM
[4]
  TGI: 51.9 nM and 1.43 µM
[5]
  TGI: 0.886 nM and 1.84 µM
[6]
  TGI: 552 nM and > 100 µM
[7]
  TGI: 50.4 nM and > 100 µM
[8]
  TGI: 19 nM and > 100 µM
[9]
  TGI: 550 nM and > 100 µM
[10]
  TGI: 28.3 nM and > 100 µM
[11]
  TGI: 7.97 nM and > 100 µM
[12]
  TGI: 30.6 nM and > 100 µM
[13]
  TGI: 16.5 nM and > 100 µM
[14]
  TGI: 48.8 nM and > 100 µM

## COc1cc(/C=C/c2ccnc3ccccc23)cc(OC)c1OC
[15]
  TGI: 8.53 µM [sample A] and > 100 µM [sample B]
[16]
  TGI: 6.33 µM [sample A] and > 100 µM [sample B]
[17]
  TGI: 9.79 µM [sample A] and > 100 µM [sample B]
[18]
  TGI: 8.35 µM [sample A] and > 100 µM [sample B]
